# For part of its entries the source gives two or more results. This is not the full list of results. An entry can have further records. Results that share an entry are repeated measurements across runs, samples, wells, individuals or studies. Additions like (4×) say how often a value occurs here.
# Test system: 817829-284-R-J1-PDC complex spheroids, viability
# Test: Anticancer human tumor 817829-284-R-J1-PDC patient-derived colon adenocarcinoma cell line growth inhibition [GQUAD]
# Conditions: for viability, T/C: stronger effect = lower value
# Text: DNA G-quadruplex Stabilizer Agents in Combinations in Complex Spheroids
# A high-throughput screen of multi-cell type tumor spheroids was designed to identify active combinations of DNA G-quadruplex stabilizer agents and targeted small molecules. Complex spheroids include a stromal component modeled by human endothelial cells (HUVEC) and fibroblasts modeled by human mesenchymal stem cells (MSCs). The concentration ranges selected for each drug and investigational agent were based upon clinically achievable concentrations if the clinical Cmax of the agent was known.
# Compounds. The drugs and investigational agents: pidnarulex (CX-5461; NSC782164), APTO-253 (NSC789042), BRACO-19 (NSC847499), peposertib (NSC802822), ceralasertib (NSC780249), elimusertib (NSC800525), camonsertib (NSC841442), AZD-1390 (NSC803789), olaparib (NSC753686), talazoparib (NSC767125), ART-558 (NSC835418), sotorasib (NSC818433), MRTX-1133 (NSC836407), SN-38 (NSC673596), topotecan (NSC609699), etoposide (NSC141540), doxorubicin (NSC123127), gemcitabine (NSC613327), 5-fluorouracil (NSC19893), paclitaxel (NSC125973), vemurafenib (NSC761431), panobinostat (NSC761190), R-306465 (JNJ-16241199; NSC773264), adavosertib (NSC754352), TP-3654 (NSC805149), carboplatin (NSC241240), KSQ-4279 (NSC840948), and staurosporine (NSC755774) were obtained from the National Cancer Institute (NCI) Developmental Therapeutics Program Chemical Repository (34). The FDA-approved anticancer drug set is available from the NCI Developmental Therapeutics Program. […] The stock solutions were prepared in dimethyl sulfoxide (DMSO, Sigma-Aldrich, St. Louis, MO, cat. D2650) at 800-fold the tested concentration and stored at -70 degrees C prior to their use. All drugs and investigational agents were tested over a range starting from a high concentration at or near the clinical Cmax and decreasing in half-log increments. If the clinical Cmax for an agent had not been determined, the highest concentration tested was 10 microM.
# 2.3 Cell Culture. All cells were maintained in an incubator at 37 degrees C and 5% CO2 with 95% humidity. The PDC lines were cultured according to standard operating procedures established by the NCI PDMR. All PDCs were thawed and cultured in Matrigel-coated flasks prepared with a working solution of 1X Ham's F-12 nutrient mix, without supplementation (Invitrogen, cat. 11765054), 100 U/mL penicillin-streptomycin (Invitrogen, cat. 15140122), and 2.5% Matrigel (Corning Inc., cat. 354248) for the first three passages. […]
# 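Note: spheroids exposed to agents for 7 days before readout.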
# 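Throughout, for viability, T/C: percent viability relative to DMSO vehicle control taken as 100%.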
smiles,measurement,setting,value
Cc1[nH]c2ccc(F)cc2c1-c1nc2c3cccnc3c3ncccc3c2[nH]1,"viability, T/C",compound alone 0.0316 µM,"92.1, 108, 105 (2×), 106, 97, 110, 116, 101, 94.3, 95.2, 119%"
same,"viability, T/C",compound alone 3.16 µM,"51.5, 49.6, 41.1, 63.1, 53.4, 44.5, 49.4, 59.6, 3.83, 67.5, 78.2, 3.3%"
same,"viability, T/C",compound alone 10 µM,"9.63, 34, 11.4, 22.4, 24.6, 44.4, 32.4, 24.5, 2.97, 48.7, 46, 3.09%"
same,IC50,"compound alone, run of 02/26/2024","1.78, 9.23, 8.68, 1.85 µM"

# — PubChem BioAssay AID2060503 (Molecular Pharmacology Branch, DTP, NCI, 2025)
